# Test results reported in article PMC4336329 (PLoS ONE, 2015).
# Screen size: about 310,000 compounds; about 2,200 (0.71%) showed an effect of 50% or more. Effects have a minus sign here. The list shows a part of the results.
# Biological target: human ether-à-go-go-related gene (hERG) potassium channel (human, UniProt Q12809)
# Assay: primary screen, population patch clamp on CHO cells stably expressing hERG
# Chain of human ether-à-go-go-related gene (hERG) potassium channel (Q12809 whole entry, looked up): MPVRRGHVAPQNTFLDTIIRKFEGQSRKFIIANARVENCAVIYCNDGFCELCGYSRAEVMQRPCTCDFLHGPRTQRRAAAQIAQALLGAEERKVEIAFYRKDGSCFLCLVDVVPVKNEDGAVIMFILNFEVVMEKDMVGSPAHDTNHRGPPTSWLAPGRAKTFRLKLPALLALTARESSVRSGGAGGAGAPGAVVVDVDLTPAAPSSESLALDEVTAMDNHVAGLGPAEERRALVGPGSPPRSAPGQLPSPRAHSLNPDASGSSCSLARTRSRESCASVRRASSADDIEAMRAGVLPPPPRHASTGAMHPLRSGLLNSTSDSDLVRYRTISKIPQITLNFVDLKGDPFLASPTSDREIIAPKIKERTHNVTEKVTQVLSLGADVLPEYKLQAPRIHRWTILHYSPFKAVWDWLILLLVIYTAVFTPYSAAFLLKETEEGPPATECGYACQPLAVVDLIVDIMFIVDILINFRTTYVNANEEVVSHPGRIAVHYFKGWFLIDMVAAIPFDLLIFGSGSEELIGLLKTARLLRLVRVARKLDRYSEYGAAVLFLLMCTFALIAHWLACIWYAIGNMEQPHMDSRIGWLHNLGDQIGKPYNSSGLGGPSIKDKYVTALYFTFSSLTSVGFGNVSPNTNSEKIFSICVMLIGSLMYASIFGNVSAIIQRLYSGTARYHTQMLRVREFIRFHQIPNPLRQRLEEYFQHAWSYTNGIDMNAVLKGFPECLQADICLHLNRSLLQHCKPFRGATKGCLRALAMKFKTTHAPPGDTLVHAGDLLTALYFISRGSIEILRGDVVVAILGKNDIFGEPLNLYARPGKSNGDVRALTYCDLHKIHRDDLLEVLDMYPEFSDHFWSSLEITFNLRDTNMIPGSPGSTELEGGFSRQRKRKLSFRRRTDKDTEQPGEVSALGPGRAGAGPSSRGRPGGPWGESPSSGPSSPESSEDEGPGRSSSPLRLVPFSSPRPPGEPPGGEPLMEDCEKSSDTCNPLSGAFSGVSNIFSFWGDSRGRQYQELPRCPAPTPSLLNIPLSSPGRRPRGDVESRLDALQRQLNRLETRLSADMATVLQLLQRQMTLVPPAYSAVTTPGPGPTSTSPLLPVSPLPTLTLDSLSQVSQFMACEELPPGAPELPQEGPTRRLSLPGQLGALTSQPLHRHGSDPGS
row,Compound,"hERG current change (%, negative = inhibition) at 1uM [%]"
1,CC(=C/c1ccccc1)/C=N/Nc1nc(N2CCOCC2)nc(N2CCOCC2)n1,6.89
2,Cc1ccc(C2CC(c3ccccc3)=NN2C(=O)CSc2nnc(-c3ccc(Cl)cc3)o2)o1 (stereo not shown),8.78
3,Cn1cnnc1SCc1cccc(Br)c1,8.01
4,Cc1cnc(NC(=O)CCCSc2nc3ccccc3s2)s1,5.03
5,CCn1ccnc1CN(C)C(=O)c1cc(COc2c(F)cccc2F)on1,10.1
6,Cc1cc(=O)oc2cc(OCC(=O)N3CCN(c4ccccc4)CC3)ccc12,-2.58
7,COC(=O)C1=C(c2ccc(OC)c(OC)c2)C[C@@H]2CC[C@H]1N2C(=O)NCCCOC(C)C,12.5
8,Nc1nnc(SCc2ccc(Cl)cc2)s1,6.23
9,COc1ccccc1C(=O)COC(=O)c1cc(=O)[nH]c2ccccc12,5.36
10,COc1ccc(-n2c(=O)[nH]c3cc(C(=O)NCCc4ccc(Cl)cc4)ccc3c2=O)cc1OC,10.6
11,Nc1ccc(C(=O)Nc2ccc(NC(=O)c3ccco3)c(O)c2)cc1,13.5
12,CCCCN(CC)CCNc1c(N2CCN(C(=O)OCC)CC2)c(=O)c1=O,10.5
13,CCN1N=C(c2cc(Cl)sc2Cl)CSC1=O,7.73
14,CN(Cc1cccc(F)c1)C(=O)c1cc(=O)[nH]c2ccccc12,11.2
15,O=C(Cn1c(=O)oc2cc(S(=O)(=O)N3CCCC3)ccc21)N1CCN(c2ccccn2)CC1,8.69
16,O=c1cc(-c2ccc(Cl)cc2)nc(N2CCN(c3ccccc3)CC2)[nH]1,13.4
17,COc1ccc2ccccc2c1CNc1nnnn1C,7.13
18,Cc1ccc(S(=O)(=O)n2cnc3ccccc32)cc1[N+](=O)[O-],15
19,O=C(N=Nc1c(O)n(Cc2ccccc2)c2ccccc12)c1ccc(O)cc1,9.07
20,CCN(CC)N=Nc1ccc(S(N)(=O)=O)cc1,20.2
21,COCCCNC(=O)c1nc2ccccc2c(=O)n1NC(=O)Nc1c(Cl)cccc1Cl,13.8
22,N#Cc1c(/N=C/c2cc3ccccc3s2)sc2c1CCC2,15.2

row,Compound,"hERG current change (%, negative = inhibition) at 1uM [%]"
1,COc1cc(OC)nc(-n2ncc(Br)c(Br)c2=O)n1,2.19
2,O=C(Nc1cccc(S(=O)(=O)NCc2ccco2)c1)c1cc(-c2ccccc2)nc2ccccc12,5.14
3,O=C(Nc1ccc(Cl)cc1)OCc1cn(-c2ccccc2)nn1,8.57
4,CCCCOC(=O)c1ccc(NC(=O)c2c(O)[nH]c(=O)[nH]c2=O)cc1,15.2
5,COC(=O)c1c(CSc2cccc(C)c2)noc1C(=O)NCc1ccco1,11.8
6,Cc1cccc(-n2ncc3c(N(C)Cc4ccccc4)ncnc32)c1,11.4
7,N#Cc1c(C(F)(F)F)cc(-c2ccccc2)nc1SCc1nc(N)nc(N2CCOCC2)n1,1.9
8,CC1(C)CC(=O)CC(C)(C)N1OC(=O)c1ccncc1,4.95
9,O=C1N/C(=N\N=C\c2cccs2)SC1Cc1cccc(Cl)c1 (stereo not shown),6.94
10,CCn1ccnc1CN(C)C(=O)c1cc(COc2ccc(Cl)cc2OC)on1,9.73
11,O=C(N/N=C/c1ccc2c(c1)OCO2)c1sc2cc(Cl)ccc2c1Cl,1.99
12,Cc1ccccc1N1CCN(C2CCCN(C(=O)CN3CCCC3=O)C2)CC1 (stereo not shown),13
13,Cc1ccc(N/N=C(\Cc2nc3ccccc3[nH]2)c2ccccc2)cc1,-0.0659
14,CCCCSc1nnc2[nH]c(=O)cc(N)n12,-7.07
15,Cc1ccnc2nc(C(=O)NCCc3ccc(F)cc3)nn12,14.8
16,COc1ccc(C)cc1NC(=O)C(OC(=O)c1ccc([N+](=O)[O-])o1)c1ccccc1 (stereo not shown),18.6
17,Cc1ccc(-c2nn(-c3cc(Cl)ccc3[N+](=O)[O-])c(=O)c3ccccc23)cc1,-13.4
18,COC(=O)C1=C(C(=O)OC)SC2(S1)C(C(=O)OC)=C(C(=O)OC)SC1=C2c2cccc(C)c2NC1(C)C,-79.1
19,CCCN1CCN(CCCNC(=O)Cn2nc(-c3ccc(C)cc3)ccc2=O)CC1,-4.49
20,COc1cc(C)c(S(=O)(=O)Nc2ccc(CC(=O)O)cc2)cc1C,0.39
21,Cc1cc(C(=O)Nc2ccccc2N2CCOCC2)c2ccccc2n1,3.74
